Measured values as given in ChEMBL document CHEMBL1157539, “Thousands of chemical starting points for antimalarial lead identification” (Nature, 2010).
Over roughly 13,000 compounds, “IFI” has its median near 4; the highest 2% begin near 17. Some of the results follow.

Test: GSK_TCMDC: Inhibition Frequency Index (IFI). The number of non-kinase HTS assays where a compound showed > 50 % inhibition, expressed as a percentage of the number of such assays in which the compound was tested (-0 is zero)
Assay type: functional

SMILES	IFI [%]
Cc1cc(C(F)(F)F)n2nc(C3CCN(Cc4cc(C)c(O)c(C)c4)C3)cc2n1 (stereo not drawn)	4.65
CNCCNCc1ccc(-c2ccc(-c3nc4cccc(C)c4[nH]3)cc2)cc1	12.9
COc1ccc(S(=O)(=O)NCC2CCCN(CCCCCNC(=O)/C=C/c3ccc(Cl)c(Cl)c3)C2)cc1 (stereo not drawn)	9.22
COc1c(OC)c(OC)c2ccccc2c1CCNCCCCNCCc1c(OC)c(OC)c(OC)c2ccccc12	18.3
CC(C)CCNc1nc(NCCc2ccccc2)c2cc(O)ccc2n1	9.56
O=C(Nc1cccc(CN2CCCN(Cc3ccc(O)cc3)CC2)c1)c1cccc(F)c1	0.68
CCN(CCCN1CCCCC1)c1cc(C)nc(Nc2ccc(F)c(C(F)(F)F)c2)n1	6.33
O=C(Nc1ccc(OCc2ccccc2)cc1)c1nc2ccccc2nc1Cl	-0
CN1CCN(c2ccnc3ccc(NC(=O)Nc4cccc(C#N)c4)cc23)CC1	1.41
CN(C(=O)C1(c2ccc(Cl)cc2)CC1)C1CCN(CCCCCNC(=O)/C=C/c2ccc(Cl)c(Cl)c2)CC1	10.9
c1ccc(Oc2ccc(Nc3ccnc4cc(-c5ccc(CN6CCOCC6)o5)ccc34)cc2)nc1	6.43
CC(C)(C)c1ccc(S(=O)(=O)Nc2ccccc2Cn2nc(N3CCNCC3)ccc2=O)cc1	2.07
O=C(Nc1ccc(-c2ccccc2)cc1)Nc1cccc(Cn2ncc(N3CCNCC3)c(Cl)c2=O)c1	8.22
CCNCc1cccc(-c2ccc3ccnc(N)c3c2)c1	3.77
Cc1cc(C2CCN(CCCCNC(=O)c3ccc(NC(=O)c4ccc(Cl)cc4)cc3)CC2)c(C)cc1OCc1ccccn1	1.52
Cc1ccc(C2=NNC3(S2)C(=O)N(C)c2ccccc23)cc1 (stereo not drawn)	5.04
CCCCCCCN(Cc1ccc(OC(C)(C)C(=O)OCC)cc1)C(=O)Nc1ccccc1OCC	0.74
C=CCn1c(Cc2ccccc2)nnc1Sc1ccc(C#N)c([N+](=O)[O-])c1	2.11
COc1ccc(-c2cnc(NCc3ccccc3)nc2)cc1CNC1CCN(C)CC1	6.94
Nc1c(Cl)cc(C(O)CNCCCCCOCCCc2ccc(O)c3ncccc23)cc1Cl (stereo not drawn)	15.6

SMILES	IFI [%]
FC(F)(F)c1ccc2[nH]c(-c3ccc(-c4cccc(CNCCN5CCNCC5)c4)cc3)nc2c1	10.7
O=C(/C=C/c1ccc(Cl)c(Cl)c1)NCCCCCCN1CCN(C(=O)Nc2ccc(F)c(Cl)c2)CC1	8.8
Cc1cc(=O)[nH]c(-n2nc(C)cc2NC(=O)C(c2ccccc2)c2ccccc2)n1	10.4
CN(C)/C(=N/C(=N)Nc1ccc(Cl)cc1)NCCCCCCN/C(=N\C(=N)Nc1ccc(Cl)cc1)N(C)C	8.89
COc1ccc(C=Cc2cc(=N)c3ccccc3[nH]2)cc1	7.59
COc1cccc(Nc2nc(C)cc(NC3CCCC3)n2)c1	14.7
CC(Sc1nnc(-c2cccs2)[nH]1)C(=O)c1c[nH]c2ccccc12 (stereo not drawn)	1.92
CS(=O)(=O)CCNCc1ccc(-c2ccc3c(Nc4ccc(F)cc4Cl)ccnc3c2)o1	10.1
CN1CCC(N(Cc2ccc(-c3ccc(C(F)(F)F)cc3)nc2)C(=O)Cn2c(CCc3cccc(F)c3F)cc(=O)c3ccccc32)CC1	9.7
CCCC(=O)c1cnc2c(Oc3cc(Cl)ncn3)cccc2c1Nc1ccccc1C	3.55
COc1ccc(C2(CNCC(O)c3cccc([N+](=O)[O-])c3)CCCC2)cc1OC (stereo not drawn)	0.7
CS(=O)(=O)CCNCc1cccc(-c2ccc3c(Nc4ccc(Oc5cccnc5)cc4)ccnc3c2)c1	6.06
COc1ccc2nccc(N(C)CC3(O)CCN(CCc4ccc5c(c4)OCCO5)CC3)c2n1	1.44
CCn1c2c(c(=N)c3ccccc31)CCC2	0.75
CC(Cc1ccc(NC(=O)c2ccc(CNCCCCc3ccccc3)cc2)cc1)NCCc1cccc(Cl)c1 (stereo not drawn)	9.15
O=C(NC1CCN(Cc2ccccc2)CC1)c1cccc(Nc2nc(-c3ccccc3)cs2)c1	10.1
CCCCN1C(=N)NC(c2ccccc2)(c2ccccc2)C1=O	1.9
NC1=NC2(CCCC2)C(c2ccc(Cl)c(Cl)c2)C(N)=N1 (stereo not drawn)	0.76
O=C(N[C@H]1CCN(Cc2ccc(OC3CCN(Cc4ccccc4)CC3)cc2)C1)c1ccc(Cl)c(Cl)c1	10
O=C1COc2ccc(S(=O)(=O)N3CCC[C@@H]3CCN3CCC(c4c[nH]c5cnccc45)CC3)cc2N1	1.48

SMILES	IFI [%]
Cc1cc(NCCCN2CCCC2=O)n2c(nc3ccccc32)c1C#N	0.85
CC(C)Cc1cn(-c2nc(-c3nc4ccccc4[nH]3)cs2)c2ccncc12	4.94
Cc1ccc(CN2CCN(Cc3cccc(NC(=O)c4cccs4)c3)CC2)cc1C	3.1
COc1ccc(Nc2nc(NN=Cc3cc(Br)c(O)cc3O)nc(Nc3ccc([N+](=O)[O-])cc3)n2)cc1	7.91
CC(C)(C)Oc1ccc(NC(=O)c2ccccc2O)cc1	0.74
CN(C)c1nc2cc(-n3cnc4cc(-c5ccc(Cl)cc5)sc4c3=O)ccc2n1CCCN1CCCCC1	13.2
CCN(CC)CCNC(=O)c1ccc(NC(=O)c2cc3c(C)nn(-c4ccc(Cl)cc4)c3s2)cc1	6.38
C#CCN(Cc1ccc2[nH]c(N)nc(=O)c2c1)c1ccc(C(=O)N[C@@H](CCC(=O)O)C(=O)O)cc1	3.65
Cc1cccc2nc(-c3cccc(-c4ccc(NC(=O)COc5ccccc5C(N)=O)cc4)c3)[nH]c12	4.39
CC(C)CN(C)c1ncnc2c1nc(-c1cncc(C#N)c1)n2CCNCc1ccccc1	0.95
CCCCCCCNc1cc(C)nc2ccc(OC)cc12	7.3
COc1cc(-c2nc(C(C)(C)CN)[nH]c2-c2ccncc2)ccc1Br	2.17
CC[C@H]1CN(Cc2ccccc2Br)CC[C@H]1CCCc1ccnc2ccc(O)cc12	7.04
O=C(c1cccc(Cl)c1)N1CCN(c2ccc([N+](=O)[O-])c(NC3CC3)c2)CC1	2.9
c1ccc(-n2ncc(CNCc3ccc(-c4ccc(-c5nc6ccccc6[nH]5)s4)cc3)n2)cc1	9.68
CC(=O)Nc1ccc(CN2CCc3ccc(NS(=O)(=O)c4ccc(-c5cccc(C(F)(F)F)c5)cc4)cc3CC2)s1	7.14
C[C@@H]([C@@H](CCCc1ccc(Cl)cc1)C(=O)N[C@H](C(=O)Nc1cccnc1)C(C)(C)C)N(O)C=O	1.48
O=C(Nc1ccccc1)Nc1ccc(-c2cccc(-c3nc4cc(C(F)(F)F)ccc4[nH]3)c2)cc1	7
